Laboratory results published in PubChem BioAssay AID624417 (National Center for Advancing Translational Sciences (NCATS), 2012).
The whole screen tested about 410,000 compounds, of which about 6,400 (1.6%) were called active. Inconclusive means that the source gave no clear call. Such entries were picked first, then a sample of the others. The call rests on the fitted dose curve; in most records, active means well fitted inhibition curve with a large enough effect; inconclusive means small, poorly fitted or top-dose-only effect; inactive means no such curve, though single readings can be large or run the other way. No potency is given beside an inconclusive call; the fits are too rough.

Biological target: Glucagon-like peptide 1 receptor (Homo sapiens) (UniProt P43220)
Assay: qHTS of GLP-1 Receptor Inverse Agonists (Inhibition Mode); further: nearly all actives have a fitted effect of over 55% in size
Settings: HEK293 GLP-1R CRE-luciferase, luminescence, 24 h, GLP-1R form is constitutively active; activity change, negative = inhibition: at 38.3 µM (top of the series) unless noted
Outline: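 Inverse agonism was detected as reduced cAMP-driven luciferase luminescence after 24 h compound treatment. The cells were HEK293 clones expressing constitutively active human GLP-1R with the reporter. Reporter-only and GPR119 cell lines served as counterscreen controls.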
On the % scale 0 is the no-effect control and ±100 the full control effect; potency means the concentration at half of the fitted maximal effect; tags describe the fitted curve by direction and shape.

UniProt P43220, sequence (P43220 whole entry, looked up): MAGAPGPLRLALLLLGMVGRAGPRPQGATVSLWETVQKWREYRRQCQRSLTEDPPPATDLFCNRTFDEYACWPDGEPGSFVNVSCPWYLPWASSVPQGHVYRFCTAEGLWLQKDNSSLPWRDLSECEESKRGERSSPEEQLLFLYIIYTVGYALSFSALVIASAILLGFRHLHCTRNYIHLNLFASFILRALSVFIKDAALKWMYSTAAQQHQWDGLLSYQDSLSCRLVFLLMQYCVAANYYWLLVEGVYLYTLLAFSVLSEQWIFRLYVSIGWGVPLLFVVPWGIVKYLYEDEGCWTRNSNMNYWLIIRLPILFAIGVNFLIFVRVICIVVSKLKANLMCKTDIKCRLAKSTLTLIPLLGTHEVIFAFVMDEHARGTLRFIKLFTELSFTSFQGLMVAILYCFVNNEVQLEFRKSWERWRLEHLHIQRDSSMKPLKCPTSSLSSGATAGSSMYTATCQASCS

Compound | Potency | activity change, negative = inhibition
CC1(C)CC(=O)C(C(O)c2ccc([N+](=O)[O-])cc2)C(C)(C)N1 (stereo not drawn) | inconclusive [inhibitor, partial curve, poor fit] | –
Cc1cccc(NS(=O)(=O)c2cccc(C(=O)NCC3(N4CCCCC4)CCCCC3)c2)c1 | inconclusive [inhibitor, single point] | –
CC1(C)C2CCC(C2)C1(C)N=C1OC(CCl)CS1 (stereo not drawn) | inconclusive [inhibitor, partial curve, poor fit] | –
CCOC(=O)c1c(-c2ccc(C)cc2)csc1/N=C/N(C)C | inconclusive [inhibitor, single point] | –
CCC(=O)Nc1cc(C(=O)O)ccc1Sc1ccc(Cl)cc1 | inconclusive [inhibitor, partial curve, poor fit] | –
NC(=O)NC(=O)C(Nc1ccc2c(c1)CCC2)c1ccccc1 (stereo not drawn) | inconclusive [inhibitor, full curve, poor fit] | –
CC1C=CC(C)C(C(=O)c2ccccc2)C1C(=O)c1ccccc1 (stereo not drawn) | active: 12.6 µM | –
CCOC(=O)Cc1cc(-c2ccc(O)cc2)nc2ccc3ccccc3c12 | – | inactive: 0%
CCOC(=O)c1cc(-c2ccc(OC)cc2)nc2c1c(C)nn2CCC(N)=S | inconclusive [inhibitor, single point] | –
Cc1cc(C)c(OCC(=O)Nc2ccccc2N2CCOCC2)c(C)c1 | inconclusive [inhibitor, partial curve, poor fit] | –
COc1cc2c(cc1OC)CN(C(C)C(=O)Nc1ccc(NC(C)=O)cc1)CC2 (stereo not drawn) | – | inactive: 0%
Cc1ccc2c(c1)N(C(=O)CCC(=O)N1CCN(c3cccc(C)c3C)CC1)CCO2 | inconclusive [inhibitor, partial curve, poor fit] | –
CC(C(=O)Nc1ccc(S(=O)(=O)N2CCCC2)cc1)N1CCc2ccccc2C1 (stereo not drawn) | inconclusive [inhibitor, single point] | –
CSCCC(NC(=O)COc1ccccc1)C(=O)NCC(C)(C)N1CCOCC1 (stereo not drawn) | – | inactive: 9.01%
Cc1ccccc1CNC(=O)c1cnc2sc(N3CCC(C)CC3)nn2c1=O | – | inactive: 6.54%
COC(=O)c1c(NC(=O)c2ccc(S(=O)(=O)N3CCC(C)CC3)cc2)sc2c1CCN(C)C2 | inconclusive [inhibitor, single point] | –
O=C(Nc1ccc(F)cc1)Nc1nnc(Cc2ccccc2F)s1 | inconclusive [inhibitor, partial curve, poor fit] | –
CCOC(=O)N1CCC(N2Cc3cccc(C(=O)Nc4c(C)cccc4CC)c3C2=O)CC1 | inconclusive [inhibitor, partial curve, poor fit] | –
